Data from patent US20260274910A1, “SINGLE FUSION PROTEIN AND PHARMACEUTICAL COMPOSITION” (MEDI&GENE INC., priority 2023, published 2026).

Tests used:
[1] = tested on: diet-induced obesity-induced mouse model; assay: Diet-induced obesity-induced model study II (preventive); format: in vivo, C57BL/6N mice
Protocol: (§1) In order to confirm the efficacy of the fusion protein against diseases according to obesity and further, sarcopenic obesity, disease induction was carried out in mice through diet-induced obesity. As an animal model, C57BL/6N was used, and was used after an acclimation period by providing normal diet for 1 week, and the housing conditions were maintained at 18~24° C., and 50~60% humidity, and ad libitum feeding with free access to feed and water was carried out during both the acclimation period and experimental period. In the mice after the acclimation period for 1 week, obesity was induced by a high-fat diet (Research Diets, Inc. D12492) to induce disease.
While obesity induction was in progress, it was confirmed whether the fusion protein prevents obesity and suppresses muscle loss induced by obesity. During providing a high-fat diet to the mice, the fusion protein (SEQ ID NO: 14) was subcutaneously injected at a dose of 5 mg/kg 8 times for a total of 6 weeks, and the efficacy thereof was observed (Control: n=11, No. 14: n=9).

[2] = tested on: diet-induced obesity-induced impaired glucose tolerance mice; assay: Diet-induced obesity-induced impaired glucose tolerance model (glucose tolerance test); format: in vivo, C57BL/6N mice; details: 5.0 mg/kg 1 hour before intraperitoneal 20% glucose, after 8 hours fasting
Protocol: In order to secure an impaired glucose tolerance model, conditions causing glucose metabolic disorders in mice by diet-induced obesity were designed. As an animal model, 5-week-old male C57BL/6N mice were obtained and after undergoing an acclimation period by providing a normal diet for 1 week, they were used, and the housing conditions were maintained at 18~24° C., 50~60% humidity, and ad libitum feeding with free access to feed and water was carried out during both the acclimation period and experimental period.
In order to induce impaired glucose tolerance to the mice which had undergone the acclimation period of 1 week, a high-fat diet was supplied to induce obesity. The high-fat diet was provided by preparing as Table 10 below.
The obesity-induced mice were divided into a control group (negative control group; n=14) and an experimental group (fusion protein SEQ ID NOs: 14, 15; No. 14: n=9, No. 15: n=9) and subjected to fasting for 8 hours. Thereafter, PBS to the control, and the fusion protein to the experimental group were administered at a concentration of 5.0 mg/kg, and after 1 hours, a 20% glucose solution was intraperitoneally injected. Blood was collected at each time point and analyzed using a glucometer.

[3] = Half-life in mice by ELISA; format: in vivo; details: C57BL6/J mice, subcutaneous 5 mg/kg
Protocol: The half-life of the fusion protein was further measured by ELISA (Enzyme-Linked Immunosorbent Assay). Each test substance was subcutaneously injected to the C57BL6/J mice at a concentration of 5 mg/kg, and then blood was separated by time.
The separated blood was added to a 96-well plate coated with a capture antibody, and each well was washed with PBS (phosphate buffered saline) 3 times. A detection solution was added to each well and the wavelengths value thereof were read at 450 nm and analyzed.

[4] = tested on: SH-SY5Y dopaminergic neuron cell line; assay: MTT cell viability of neuron cells under rotenone; format: cell-based; details: 1 µM rotenone + 100 nM test substance, 24 hours; compared with rotenone alone
Protocol: (§2) The SH-SY5Y dopaminergic neuron cell line was treated with 1 µM of a toxic substance, rotenone and 100 nM of each test substance simultaneously. After 24 hours, the MTT cell viability or the effect of reducing reactive oxygen was observed.

[5] = tested on: Duchenne muscular dystrophy mouse model (C57BL/10ScSn-Dmdmdx/J); assay: Duchenne muscular dystrophy mouse model; format: in vivo; details: 5 mg/kg subcutaneous 6 times a week for 3 weeks; versus Control
Protocol: The effects of the test substances on muscle diseases accompanied by muscle loss were evaluated in a Duchenne muscular dystrophy mouse model (C57BL/10ScSn-Dmdmdx/J) causing progressive muscle degeneration by genetic modification.
The mouse model was divided into a Control and an experimental group. PBS to the Control, and the fusion protein (SEQ ID NO: 2) to the experimental group were subcutaneously injected at a concentration of 5 mg/kg 6 times a week for 3 weeks. After 3 weeks, it was confirmed whether the fusion protein (SEQ ID NO: 2) improved the decline in muscle function caused by muscle degeneration by conducting a grip strength test (Control: n=9, No. 2: n=8).

[6] = tested on: diet-induced obesity-induced mouse model; assay: Diet-induced obesity-induced model study I; format: in vivo, C57BL/6N mice; details: versus Control
Protocol: as §1
The mice in which obesity induction was completed were divided into a Control and an experimental group (Control: n=8, No. 1: n=6, No. 2: n=6), and PBS to the control group, and the fusion protein (SEQ ID NO: 1, 2) to the experimental group were subcutaneously injected at a dose 5 mg/kg 6 times a week for 10 weeks and the efficacy thereof was observed.

[7] = tested on: SH-SY5Y dopaminergic neuron cell line; assay: Reactive oxygen in neuron cells under rotenone; format: cell-based; details: 1 µM rotenone + 100 nM test substance, 24 hours; compared with rotenone alone
Protocol: as §2

[8] = tested on: db/db mouse model (C57BLKS/J-db/db); assay: Leptin receptor-deficient diabetes model study I; format: in vivo; details: 5 mg/kg subcutaneous 6 times a week for 4 weeks
Description: In order to confirm efficacy of the fusion proteins in a diabetic pathological condition in which impaired glucose tolerance by genetically inducing mutation to a leptin receptor gene, a 7-week-old db/db mouse model (C57BLKS/J-db/db) was used. The mice after a one-week acclimation period were divided into a control (n=7) and an experimental group (fusion protein SEQ ID NO: 2; n=8). The mice was provided with a normal diet, and for 4 weeks, PBS to the control, and the fusion protein to the experimental group were subcutaneously injected at a dose of 5 mg/kg 6 times a week, and the efficacy thereof was observed.

[9] = 5 mg/kg subcutaneous during high-fat diet, versus Control
[10] = 5 mg/kg subcutaneous 6 times a week for 10 weeks
[11] = after 3 weeks of administration

B1: SEQ ID NO: 14: Recombinant protein: Shortened substance (1-60)-Shortened linker-Fc fusion (protein)
chain: GSDQSENVDRGAGSIREAGGAFGKREQAEEERYFRAQSREQLAALKKHHEEEIVHHKKEIGGGGS[human IgG1 Fc with C220Q (EU numbers) omitted here]
[1]; 5 mg/kg subcutaneous 8 times for 6 weeks during high-fat diet, Control 18.57±1.26
  Absolute value of muscle mass (DXA assay): 20.46 ± 2.71 g
[1]; 5 mg/kg subcutaneous 8 times for 6 weeks during high-fat diet, Control 34.61±2.33
  Final body weight: 32.99 ± 2.55 g
[1]; [9]
  Fat tissue ratio: decrease
  Muscle tissue ratio: increase
[1]; 5th week after administration
  Muscle function (grip strength test): improved
[2]
  Blood glucose variation over time (GLUAUC) compared with the control group: significant difference

B2: SEQ ID NO: 2: Recombinant protein: Shortened substance (1-60)-repeat-type linker-Fc fusion (mutant modified) (protein)
chain: GSDQSENVDRGAGSIREAGGAFGKREQAEEERYFRAQSREQLAALKKHHEEEIVHHKKEIGGGGSGGGGSGGGGS[human IgG1 Fc with changes omitted here]
[3]
  Half-life: 45.6 h
[4]
  Cell viability (MTT): significantly increased
[5]
  Grip strength: significantly improved
[6]; [10]
  Blood sugar: reduced
  Final body weight: reduced at a significant level
  Size of lipid droplets in liver tissue: significantly reduced
[6]; [11]
  Fat tissue mass (DXA assay): significant decrease
  Muscle mass (DXA assay): maintained
[7]
  Generation of reactive oxygen: significantly inhibited
[8]; control 47.59 ± 3.43
  Muscle tissue ratio (% ± SD): 49.90 ± 3.26%
[8]; control 52.41 ± 3.43
  Fat tissue ratio (% ± SD): 50.10 ± 3.26%
[8]; versus control
  Muscle function (grip strength test): significantly improved
